Experimental data taken from article PMC9911399, “Two distinct binding modes provide the RNA-binding protein RbFox with extraordinary sequence specificity”.
Residue numbers refer to the chain shown, from its start. This is one part of the list.

T1: RBFOX1 RRM (Homo sapiens, UniProt Q9NWB1 109-208)
T1 sequence: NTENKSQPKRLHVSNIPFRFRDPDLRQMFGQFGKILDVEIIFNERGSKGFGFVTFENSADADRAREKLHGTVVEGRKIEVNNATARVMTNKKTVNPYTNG

B1: CACUAAA (DNA:RNA)
RNA: GGGAGACCGGAAUUCAGAUUGUCCCACUAAAUUAAAUCCCGUCGUAGCCACCA
DNA 1: CAATCTGAATTCCGGTCTCCC
DNA 2: TGGTGGCTACGACGGGATT
B2: GGACCUG (DNA:RNA)
RNA: GGGAGACCGGAAUUCAGAUUGUCCGGACCUGUUAAAUCCCGUCGUAGCCACCA
DNA 1: CAATCTGAATTCCGGTCTCCC
DNA 2: TGGTGGCTACGACGGGATT
B3: GGGAUGA (DNA:RNA)
RNA: B2 RNA with A27G, C28A, C29U, U30G, G31A
DNA 1: CAATCTGAATTCCGGTCTCCC
DNA 2: TGGTGGCTACGACGGGATT
B4: AUUGCAC (DNA:RNA)
RNA: B1 RNA with C25A, A26U, C27U, U28G, A29C, A31C
DNA 1: CAATCTGAATTCCGGTCTCCC
DNA 2: TGGTGGCTACGACGGGATT
B5: CACUUUG (DNA:RNA)
RNA: B1 RNA with A29U, A30U, A31G
DNA 1: CAATCTGAATTCCGGTCTCCC
DNA 2: TGGTGGCTACGACGGGATT
B6: GAUGGGA (DNA:RNA)
RNA: B1 RNA with C25G, C27U, U28G, A29G, A30G
DNA 1: CAATCTGAATTCCGGTCTCCC
DNA 2: TGGTGGCTACGACGGGATT
B7: AAGUUCC (DNA:RNA)
RNA: B1 RNA with C25A, C27G, A29U, A30C, A31C
DNA 1: CAATCTGAATTCCGGTCTCCC
DNA 2: TGGTGGCTACGACGGGATT
B8: CGAAUUG (DNA:RNA)
RNA: B2 RNA with G25C, C28A, C29U
DNA 1: CAATCTGAATTCCGGTCTCCC
DNA 2: TGGTGGCTACGACGGGATT
B9: ACGGAAG (DNA:RNA)
RNA: B1 RNA with C25A, A26C, C27G, U28G, A31G
DNA 1: CAATCTGAATTCCGGTCTCCC
DNA 2: TGGTGGCTACGACGGGATT

Molecular target: T1, RBFOX1 RRM
Experiment: EMSA; HiTS-Eq, 1 nM pool, 10 min; buffer printed only for the single-RNA assays: 10 mM Tris pH 7.5, 150 mM NaCl, 3.4 mM EDTA, 0.001% NP-40, 30 C
Conditions: tags: His6 N-terminal (pET28a); label: 5' 32P
Method in brief: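 These values rest on relative association constants, computed from read-count changes of each RNA species versus the control reaction and normalised to the cognate motif. Reads came from free RNA recovered by 8% native PAGE after purified RbFox RRM (wild type or mutant) at increasing concentrations was equilibrated for 10 min in 50 µL with 1 nM of a 5′-radiolabelled pool with 7 randomized nucleotides and DNA-annealed flanks.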

Point of comparison: B9, binding signal 0.0086 KA relative to UGCAUGU. Against it:
- B1 — lower, 0.00134 KA relative to UGCAUGU
- B2 — higher, 0.0243 KA relative to UGCAUGU
- B3 — higher, 0.0379 KA relative to UGCAUGU
- B4 — higher, 0.0167 KA relative to UGCAUGU
- B5 — higher, 0.0116 KA relative to UGCAUGU
- B6 — higher, 0.00898 KA relative to UGCAUGU
- B7 — lower, 0.00672 KA relative to UGCAUGU
- B8 — higher, 0.00904 KA relative to UGCAUGU
